Out of some 310,000 compounds screened, about 14,000 (4.5%) showed an effect of 50% or more. The effect is printed as a negative number. This is one part of the list.
Target: human ether-à-go-go-related gene (hERG) potassium channel (human, UniProt Q12809)
Assay: primary screen, population patch clamp on CHO cells stably expressing hERG
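Further: peak tail current of the secondary pulse compared with the same well before compound.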

human ether-à-go-go-related gene (hERG) potassium channel, sequence (Q12809 whole entry, looked up): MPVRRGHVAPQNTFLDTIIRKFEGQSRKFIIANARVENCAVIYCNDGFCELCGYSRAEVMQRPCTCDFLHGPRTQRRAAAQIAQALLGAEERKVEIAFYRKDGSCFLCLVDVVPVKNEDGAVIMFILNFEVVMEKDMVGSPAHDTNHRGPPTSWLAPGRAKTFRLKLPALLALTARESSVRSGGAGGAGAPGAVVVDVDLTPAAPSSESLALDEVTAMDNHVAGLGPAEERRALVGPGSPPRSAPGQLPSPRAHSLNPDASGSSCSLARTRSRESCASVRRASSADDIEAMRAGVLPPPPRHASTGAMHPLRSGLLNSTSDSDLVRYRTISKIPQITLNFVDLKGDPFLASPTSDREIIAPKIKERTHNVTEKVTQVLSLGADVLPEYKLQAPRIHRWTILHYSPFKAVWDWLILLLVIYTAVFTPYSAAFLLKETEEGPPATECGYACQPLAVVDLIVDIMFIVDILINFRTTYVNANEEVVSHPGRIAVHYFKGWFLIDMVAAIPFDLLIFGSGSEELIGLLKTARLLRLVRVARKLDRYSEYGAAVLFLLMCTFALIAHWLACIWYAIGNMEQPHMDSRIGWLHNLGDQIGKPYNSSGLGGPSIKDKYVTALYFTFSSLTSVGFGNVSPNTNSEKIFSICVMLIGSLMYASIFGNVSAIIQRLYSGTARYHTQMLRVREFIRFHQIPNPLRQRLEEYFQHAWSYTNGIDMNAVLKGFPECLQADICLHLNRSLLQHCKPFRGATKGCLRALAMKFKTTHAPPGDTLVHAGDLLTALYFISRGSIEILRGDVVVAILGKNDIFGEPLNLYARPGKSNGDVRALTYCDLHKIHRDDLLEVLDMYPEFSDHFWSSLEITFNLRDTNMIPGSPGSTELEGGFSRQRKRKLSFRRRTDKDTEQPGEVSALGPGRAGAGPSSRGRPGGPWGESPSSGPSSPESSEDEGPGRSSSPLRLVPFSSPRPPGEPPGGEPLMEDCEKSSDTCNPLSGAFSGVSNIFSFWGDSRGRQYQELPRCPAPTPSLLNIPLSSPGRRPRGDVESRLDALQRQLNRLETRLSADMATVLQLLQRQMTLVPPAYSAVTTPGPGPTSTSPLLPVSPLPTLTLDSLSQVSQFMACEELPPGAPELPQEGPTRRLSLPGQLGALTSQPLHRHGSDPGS

| Compound | hERG current change (%, negative = inhibition) at 10uM |
| --- | --- |
| CCCCOC(=O)Nc1ccc(S(=O)(=O)Nc2ncccn2)cc1 | 5.77% |
| O=c1cc(Cn2ccnc2)c2cc3c(cc2o1)CCC3 | -5.54% |
| Cc1sc2nc(CN(CCc3ccccc3)C(=O)c3ccco3)[nH]c(=O)c2c1C | 8.85% |
| CCc1cc(CNC(=O)c2ccc(OC)c(OC3CCN(C(C)C)CC3)c2)on1 | -4.13% |
| CCn1c(C)c(C)c2cc(C(=O)NCCc3ccco3)ccc21 | 4.52% |
| Cc1ccc(NC(=O)N(C2CCCCC2)C(C)c2cccnc2)cc1C (stereo not drawn) | 11.4% |
| Cn1c(COc2ccc(Cl)cc2)nnc1SCC(=O)NC1CCCC1 | -33.2% |
| O=C(Nc1ccc2c(c1)OCCO2)C1CCCC1 | 3.23% |
| O=C(NCC(=O)N1CCN(C(=O)c2ccccc2)CC1)c1ccc(Cl)cc1Cl | -31.2% |
| CCOC(=O)C1CCN(C(=O)C2CCN(C(=O)c3ccc([N+](=O)[O-])cc3)CC2)CC1 | -69.3% |
| COC(=O)c1cccc(NC(=S)Nc2ccc(Cl)c(Cl)c2)c1 | 7.76% |
| Cc1cccc(CN2CCN(Cc3cccc(-n4cccn4)c3)CC2CCO)n1 (stereo not drawn) | -45.7% |
| COc1cc(NC(=O)c2cc(C)nc3ccccc23)cc(OC)c1OC | 27.5% |
| COc1cc(CN(C)CC2CCCN(CCc3ccc(F)cc3)C2)c(Cl)cc1O (stereo not drawn) | -30% |
| O=S(=O)(Nc1nc2cc3c(cc2nc1Cl)OCCO3)c1ccccc1 | -15.5% |
| N#Cc1c(-c2ccc([N+](=O)[O-])cc2)nc2n(c1=O)CCS2 | -28.7% |
| COc1ccc(S(=O)(=O)N(C)C)cc1NC(=O)CN1C(=O)NC2(CCCC2)C1=O | 15.5% |
| CCOc1cc(C=C2C(=O)c3ccccc3C2=O)ccc1OCC(=O)Nc1ccc(C)cc1 | 34.5% |
| O=C(NC1CCN(Cc2ccccc2)CC1)c1c(F)cccc1F | -24.4% |
| N#CCCN/N=C(/Cc1nc2ccccc2[nH]1)c1cccc(Cl)c1 | 6.63% |
| CSc1ccccc1NC(=O)c1cc(C2CC2)on1 | -32% |
| CCC1Sc2ccccc2N(CC(=O)NCCC(C)C)C1=O (stereo not drawn) | 1.77% |

| Compound | hERG current change (%, negative = inhibition) at 10uM |
| --- | --- |
| CC1(C)CC(=O)C(N=Nc2cccc(S(=O)(=O)N3CCOCC3)c2)=C(O)C1 | -3.93% |
| Cc1cc(NC(=O)c2cccs2)ncc1NC(=O)c1cccc(F)c1 | 1.64% |
| CC1=C(C(=O)Nc2cc(C(=O)N(C)Cc3ccccc3)ccc2C)SCCO1 | -1.7% |
| O=[N+]([O-])c1ccc(N2CCCCCC2)c2ncccc12 | 5.54% |
| O=C(NC1CCN(Cc2ccccc2)CC1)c1ccc2c(c1)[nH]c(=O)n2Cc1ccc(F)cc1 | -21.8% |
| CC(=O)c1ccc(S(=O)(=O)N2CCCC(N(C)CCc3ccccc3)C2)cc1 (stereo not drawn) | -81.2% |
| COc1cc(CN2CCN(Cc3ccc(C)cc3)CC2)c([N+](=O)[O-])cc1OC.O=C(O)C(=O)O | -77.2% |
| O=C1CC(N2CCC(C(=O)N3CCCCC3)CC2)C(=O)N1 (stereo not drawn) | 5.55% |
| CCC(O)(c1ccc(OC)cc1)C(CN1CCOCC1)c1ccccc1.Cl (stereo not drawn) | -20.7% |
| CCNC(=S)N(Cc1ccc(OC)cc1)C1CC(=O)N(c2ccc(OCC)cc2)C1=O (stereo not drawn) | 4.68% |
| O=C(COC(=O)c1cc(S(=O)(=O)N2CCOCC2)ccc1F)NC1CCCCC1 | -2.25% |
| O=C(CNC(=O)c1ccco1)NCC(=O)OCc1c(F)cccc1Cl | 4.47% |
| CCS(=O)(=O)N1CCC(C(=O)Oc2ccccc2)CC1 | 2.27% |
| COc1cccc(C(=O)N2CCN(Cc3ccc4c(c3)OCO4)CC2)c1OC | -5.04% |
| CN(CC(O)CN1CCOCC1)S(=O)(=O)[O-].[Na+] (stereo not drawn) | 25.3% |
| CC1S/C(=C(\C#N)C(=O)NCc2ccco2)N(Cc2ccco2)C1=O (stereo not drawn) | 7.2% |
| COc1ccc(C2=NN(S(C)(=O)=O)C(c3cccs3)C2)cc1OC (stereo not drawn) | 12.6% |
| CC1CN(CC(O)COC(c2ccc(Cl)cc2)c2ccc(Cl)cc2)CC(C)O1.Cl (stereo not drawn) | -71.9% |
| Cl.O=C(CSc1ncn[nH]1)Nc1ccc([N+](=O)[O-])cc1Br | 9.19% |
| N#CC12CCCCC1CC1CCCCC1(C#N)N2Cc1ccccn1 (stereo not drawn) | 4.58% |
| O=C(NC1CCCC1)C(c1cccnc1)N(C(=O)c1csnn1)C1CCCC1 (stereo not drawn) | 13% |
| C=C(C)c1cccc(C(C)(C)NC(=O)NCCCN2CCCC2=O)c1 | 15.6% |

| Compound | hERG current change (%, negative = inhibition) at 10uM |
| --- | --- |
| CCOC(=O)c1cc2c(=O)n3cccc(C)c3nc2n(CCOC)c1=NC(C)=O | -16.3% |
| CC[n+]1c(/C=C(/C)SC)sc2ccccc21.COS(=O)(=O)[O-] | 5.99% |
| O=[N+]([O-])c1cccnc1N1CCOCC1 | 14.3% |
| Cc1ccccc1C(=O)NNC(=O)C1CCN(C(=O)Nc2ccccc2)CC1 | 24.6% |
| Cc1ccccc1Nc1c(-c2ccncc2)nc2ccc(Br)cn12 | -31% |
| CC(=O)Nc1cc(C(F)(F)F)ccc1OCC1CCCO1 (stereo not drawn) | -11.7% |
| COC(=O)Cc1n[nH]c(=O)c2ccccc12 | 7.54% |
| COC(=O)c1ccc(NC(=O)CSCC(=O)OCC(=O)c2ccc(Br)cc2)cc1 | 7.85% |
| CCSc1nnc(NC(=O)COc2cccc3ccccc23)s1 | 19.6% |
| Cc1ccc(OCc2nnc(SCC(=O)Nc3ccc4c(c3)OCCO4)n2Cc2ccco2)cc1 | 6.31% |
| Cc1cc(=O)oc2c3c(cc(OCC(=O)NCC4CCC(C(=O)O)CC4)c12)OC(C)(C)CC3 (stereo not drawn) | -7.94% |
| Cc1cc(C)c(C)c(S(=O)(=O)N2CCN(C(=O)c3ccccn3)CC2)c1C | -26.3% |
| Cc1cc(C)c(C#N)c(SCc2ccc(F)cc2)n1 | 16% |
| COc1ccccc1C(=O)Oc1cc(C)[nH]c(=O)c1[N+](=O)[O-] | 2.32% |
| COc1ccc(CCC(=O)NCCc2cnc[nH]2)cc1 | 12.5% |
| CCOC(=O)N1CCN(CCC(=O)Nc2cc(C)ccc2OC)CC1.Cl | 1.07% |
| CCc1nc(C)c(C#N)c2cc(OC)c(OC)cc12 | 1.21% |
| CC1CCCN(C(=O)CSc2nnc(-c3cccnc3)n2C2CCCCC2)C1 (stereo not drawn) | -13.4% |
| CN(Cc1cc2ccccc2[nH]c1=O)S(C)(=O)=O | -6.06% |
| CCCn1c(C)cc(/C=C(\C#N)C(=O)OCC(=O)NC(=O)NCC)c1C | -3.94% |
| CC1(C)CC(=O)C=C(Nc2cccc(C(F)(F)F)c2)C1 | -3.01% |
| O=C(CN1C(=O)NC2(CCCC2)C1=O)N1CCN(S(=O)(=O)c2cccc(C(F)(F)F)c2)CC1 | -5.43% |

| Compound | hERG current change (%, negative = inhibition) at 10uM |
| --- | --- |
| C[C@@H](C(=O)Nc1ccc2ccccc2c1)[C@@H]1C[C@@]1(C)[C@@H](NC(=O)OCc1ccccc1)c1ccccc1 | 11.5% |
| COc1ccc(C(=O)Nc2n[nH]c(-c3ccncc3)n2)cc1 | 2.24% |
| COc1ccccc1N1CCN(C(=O)c2cccc(S(=O)(=O)NCc3cccnc3)c2)CC1 | -6.86% |
| COc1cc(OC)cc(-c2c(-c3cccs3)c3cc(-c4ccc5[nH]ccc5c4)ccc3n2C)c1 | 11.8% |
| COc1ccc(CCNC(=O)COC(=O)CNS(=O)(=O)c2ccc(SC)c([N+](=O)[O-])c2)cc1 | 8.61% |
| COc1cc(/C=N/NC(=O)c2cc(-c3ccccc3Cl)nc3ccccc23)cc(OC)c1O | -12.3% |
| COc1ccccc1-c1ccc(=O)n(CC(=O)NC2CCc3ccccc32)n1 (stereo not drawn) | 5.88% |
| Br.NC1CCc2cc(O)c(O)cc2C1 (stereo not drawn) | 11.2% |
| N#Cc1ccc(N2Cc3ccccc3C2=NC(=O)c2cccs2)cc1 | -36.1% |
| CCOC(=O)C1=C(C)N=c2s/c(=C/c3ccc(OCC(=O)O)cc3)c(=O)n2C1c1cc(OC)c(OC)c(OC)c1 (stereo not drawn) | -4.27% |
| CC(=O)N1CCN(S(=O)(=O)c2ccc(C)cc2)C1C(C)C (stereo not drawn) | 1.23% |
| CCNc1nc(NC(C)C)nc(N(C#N)CCOc2ccc(Cl)cc2Cl)n1 | -1.33% |
| CCCC/S(CC1CC1(Cl)Cl)=N\S(=O)(=O)c1ccc(C)cc1 (stereo not drawn) | -8.74% |
| Nc1nc(Nc2ccccc2F)sc1C(=O)c1ccccc1 | 2.71% |
| COC(=O)c1c(C)n(-c2ccc(OC)cc2)c2ccc(O)cc12 | 11.1% |
| Cc1cc(-n2nc(C)cc2C)nc(NS(=O)(=O)c2ccccc2)n1 | 17.6% |
| Cc1cc(C(=O)N/N=C/c2ccc(-c3cccc(Cl)c3Cl)o2)n[nH]1 | 12.4% |
| CCOc1ccc(CN(C)C(=O)CNC(=O)Cc2cccc3ccccc23)cc1 | 10.2% |
| Cc1ccc(COc2coc(CN3CCN(C(=O)c4ccco4)CC3)cc2=O)cc1 | -48.4% |
| COc1ccc(CCn2c(O)c(/C=N/N3CCOCC3)c(=O)[nH]c2=O)cc1OC | 7.53% |
| CC(C)c1ccc(/C=C2\SC(N3CCCC3)=NC2=O)cc1 | -37.1% |

From publication PMC4336329 (PLoS ONE, 2015)
